The source of these data is PubChem BioAssay (NCI).

In this assay the test system is NCI-H322M lung. The assay is described as follows: NCI-60 cell line screen, 48 h.

Each structure is given as a SMILES string.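 In this assay, cells in 96-well plates receive the compound at five concentrations for 48 hours. Endpoints are linearly interpolated between the surrounding concentrations. GI50 = concentration required for 50% inhibition of growth. TGI: total growth inhibition.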

Consider `O=C(NCCCCCCCCCC[P+](c1ccccc1)(c1ccccc1)c1ccccc1)c1ccc(-n2nc(-c3ccccc3O)nc2-c2ccccc2O)cc1`, for which the GI50 was 175 nM and the TGI came out at 1020 nM.
